Laboratory results: article PMC12136788
The other results are listed elsewhere or left out.

B1: chr3:169712149:169712150:+_ENSG00000008952_ENST00000337002|hu_mus|FALSE|FALSE (ssRNA)
RNA: GGGAGUUCUACAGUCCGACGAUCCAAACACAAGAAGAGAAACAGCCUAAAGGAGGAUGAAGACCUAUAUAUCCAUCACCUACUAACUACAAAGCAAAACCACCGUGUGACUAAAGGAAAAUCACUCACUGCUCACUGGGGUGUCAACAGAGGAUUGAGCAUCA
B2: chr17:64801638:64801639:+_ENSG00000154229_ENST00000413366|hu_mus|hu_hu_hu_mus_False|8_38 (ssRNA)
RNA: GGGAGUUCUACAGUCCGACGAUCUAUAUAUAUAUAUACAUAUGUACACAUAUAUAGUAAAACCCUAGUUAAACGUGUAAAGUAGCCAUUCAUUUUUGAAAUUUUAUCUACAUUAAAAAAUUAAUAUAUCUGAUACAGUGCCAGCAACAGAGGAUUGAGCAUCA
B3: chr13:100201707:100201708:-_ENSMUSG00000052727_ENSMUST00000064762|mus_hu|FALSE|FALSE (ssRNA)
RNA: GGGAGUUCUACAGUCCGACGAUCCUGACUGACAUCUAUUUGUGUGGGAGAAACAUCUCCUAAUUUCCUUUCAUCCAGAGCCAGUGCUGGUUGAGAACUCAUGGCUUCAACAUCAUCAGUUUUCUUUUCUUGGCCAAAGUCUUCCAACAGAGGAUUGAGCAUCA
B4: chr19:16212804:16212805:+_ENSG00000167460_ENST00000300933|hu_mus|hu_hu_hu_mus_False|38_68 (ssRNA)
RNA: GGGAGUUCUACAGUCCGACGAUCAACAAUUCUGGAGUGAAGGAAAGAUGUAACAUGGAACAGCAUUCCAUCUAUUACAGAAGGCACAUGGGCAACAAUGACUAUUUCAGCAUUCUCGCUUGGAAUGCUUAAAGACAAUCUGUUCAACAGAGGAUUGAGCAUCA
B5: chr1:109605286:109605287:-_ENSG00000197780_ENST00000461096|hu_mus|hu_hu_hu_mus_True|1_18 (ssRNA)
RNA: GGGAGUUCUACAGUCCGACGAUCAAGUUUCAGAGUAACAUUCAGUAACCUCUUUAAAUGCAAUUAUCCUUAUUAUAAGCUAAGCAGAAUAAUAAUUUAAUACCGUAAGUGAACUACCACAAAACCUUGAACCGCGAAACUACACAACAGAGGAUUGAGCAUCA
B6: chr7:141445308:141445309:+_ENSG00000106028_ENST00000265304|hu_hu|hu_hu_hu_mus_False|58_68 (ssRNA)
RNA: GGGAGUUCUACAGUCCGACGAUCUAUGAUUGUUGUUGCUUGCCGCCUCACAUUGUUUUUAUCCAUGUAUUCACCAUAGUCUAUUUUCCCUUCCACAAAUAUACGAGCCCCCUUUUUCACAUACUGAUAUGCCACAUCUCUGAGCAACAGAGGAUUGAGCAUCA
B7: chr14:89327608:89327609:+_ENSG00000165533_ENST00000346301|hu_hu|motif|central (ssRNA)
RNA: GGGAGUUCUACAGUCCGACGAUCUUCCUCAUAGAUUCUUGCAAUUCCACAGAGCAGGGUUACUUCUCCUGGAAACUUAUCGGAGCCUUGUUUGAAAAGAUUUAAAGCAGUCACAGGUUGAUCCAAUGAGACAUAAACUUUUGCCAACAGAGGAUUGAGCAUCA
B8: chr2:232320318:232320319:-_ENSG00000115053_ENST00000322723|hu_hu|hu_hu_hu_mus_True|48_48 (ssRNA)
RNA: GGGAGUUCUACAGUCCGACGAUCACUAUUAAAGUCUACAAAACCAAACCCUUUGGAAGAACCAGUUUCCCGAUCAGUGACUAUUCUUGCCCGAACGGAGCCCUCAAAUGAUUCUUUUAAGGUCUCUUCAGUGGUAUCCUCAGACAACAGAGGAUUGAGCAUCA
B9: 242173309_242174586_3446_CDS_ENSG00000115677_ENST00000391976|human|control|control (ssRNA)
RNA: GGGAGUUCUACAGUCCGACGAUCCUUUCUCCCGAUAAUCUUGGGAUGGUAUUUGGGGUCUACAGUGACACUCAGCUUAAAACUCCUUAAAGCCCGGUCCUCCUGCUCGGCCUGUAGCUCCUUCACACGCUCCAGCAGUCCAGCCAACAGAGGAUUGAGCAUCA
B10: chr22:19452774:19452775:-_ENSG00000070010_ENST00000399523|hu_hu|hu_hu_hu_mus_False|98_98 (ssRNA)
RNA: GGGAGUUCUACAGUCCGACGAUCCUUCUCAUUGUAGUUGAUGGCAAUCACAUCUCCAGUCGUCAGACAGGCGAAGUUUCUCAAUGCAUUUUCUAAUACCGCUUUAGGGUUGGUAAUAUCCAGGAAGUCUGGGCUCUGAGGCUGCAACAGAGGAUUGAGCAUCA
B11: chr3:150459880:150459881:-_ENSG00000181788_ENST00000312960|hu_mus|motif|central (ssRNA)
RNA: GGGAGUUCUACAGUCCGACGAUCGGAAGAUGUACUGAAUAAAACAUCUAUUAAAAAACCUUUAUUAAACAUAGAGCGCGGUGCCCAAAUAACUUCCCAGGGUUAGGAAAGCCUCCUGGAGCCUCACUGACAGCAUGUAGAUAUCAACAGAGGAUUGAGCAUCA
B12: chr11:87793471:87793472:-_ENSMUSG00000020483_ENSMUST00000020775|mus_mus|mus_mus_mus_hu_False|78_88 (ssRNA)
RNA: GGGAGUUCUACAGUCCGACGAUCUGGACUUGAAAAUAAAAGAAUAAGCUAGAUUUCCCCACCCCUUACAUUGUCAACCCUACACGAGAGUUUUGAAGGCGACUCAUGAAAAUCAGCAGCUCAAACGGCAAUGACCACCCCACCCAACAGAGGAUUGAGCAUCA
B13: chr2:217001844:217001845:+_ENSG00000079246_ENST00000392132|hu_hu|hu_hu_hu_mus_False|1_98 (ssRNA)
RNA: GGGAGUUCUACAGUCCGACGAUCACCAACUUGAGGAUUAGCUCUUUUGUCAUAAGCAUAUCGGACGAUGGCGACCAUGUUUAACUCAUCCAAAGCAUGAACGAGAGAGGAAAGGGCAACAGCUGCCGCCUCAUCAUCUCUUGCCAACAGAGGAUUGAGCAUCA
B14: chr2:132618855:132618856:+_ENSMUSG00000027350_ENSMUST00000028826|mus_mus|motif|central (ssRNA)
RNA: GGGAGUUCUACAGUCCGACGAUCUUCAGGUUCUUCUUCUGAAGCCCUGUAGUGAGCUAGAUGGUGACUCCUUUUUUCCCCGGAACGGACUGUGGCCACAUCUGCCUCCUUGGACUCCUUGGGAGAGGGUCUCCUUUCCUCAGACAACAGAGGAUUGAGCAUCA

What follows are binders tested against T1, UNK ZnF1-3 (human, UniProt Q9C0B0 31-174) (assay: nsRBNS (natural sequence RNA bind-n-seq); RBNS binding buffer (assumed for nsRBNS): 25 mM Tris pH 7.5, 150 mM KCl, 3 mM MgCl2, 0.01% Triton X-100, 500 ug/ml BSA, 20 U/ml SUPERase-In, 4 C; UNK is unkempt and MSI1 is Musashi-1; names of the RNAs are library labels; protein concentration not given here; high values mean tight binding).
T1 sequence: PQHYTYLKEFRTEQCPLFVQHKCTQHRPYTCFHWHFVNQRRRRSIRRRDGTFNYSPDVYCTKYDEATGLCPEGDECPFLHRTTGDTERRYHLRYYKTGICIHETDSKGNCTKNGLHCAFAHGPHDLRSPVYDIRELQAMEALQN
B1 was tested, and the binding signal was 2.31 enrichment R.
Work on B2 yielded a binding signal of 1.68 enrichment R.
For B3, the binding signal was 0.624 enrichment R.
For B4, the binding signal was 1.03 enrichment R.
B5 was tested, and the binding signal was 0.692 enrichment R.
Work on B6 yielded a binding signal of 0.622 enrichment R.
Work on B7 yielded a binding signal of 1.12 enrichment R.
B8 was tested, and the binding signal was 0.38 enrichment R.
With B9 the binding signal was 1.56 enrichment R.
B10 gave a binding signal of 0.855 enrichment R.
Work on B11 yielded a binding signal of 1.72 enrichment R.
With B12 the binding signal was 1.67 enrichment R.
B13 gave a binding signal of 1.65 enrichment R.
B14 showed a binding signal of 0.662 enrichment R.
